Results from US20200362051A1 (CRESCENDO BIOLOGICS, published 2020).
Blank lines part the entries; values can stand above or below the binder they belong to.

Assays:
[1] = biological target: T1, human PSMA expressed on cells (human, UniProt Q04609); assay: dual-binding cell ELISA: CHO-PSMA cells, bound construct detected with 1 nM CD137huFc and anti-huFc-HRP; average ± SD, n=3
T1 construct: Type II membrane glycoprotein; also called CHO human PSMA; CHO PSMA
Protocol: (§1) Dual target engagement of CD137 and PSMA by the bispecific molecules was assessed using an ELISA format and by flow cytometry with T cells. For ELISA, CHO-PSMA cells (20000/well) were seeded into 96 well plates (Greiner cat no. 353872) in Hams F12 supplemented with L-Glutamine+Blasticidin+Tetracycline and incubated at 37° C. with 5% CO₂ overnight. All subsequent steps were performed at room temperature and included washes with PBS between each step. Plates were blocked with PBS/0.1% BSA for 1 hour then serially diluted Humabody® VH were added and allowed to bind for 1 hour. Following removal of unbound VH, 1 nM CD137huFc (Acro Biosystems cat no. 41B-H5258) was added to the wells and incubated for 1 hour. A 1:3000 dilution of Anti-huFc-HRP (Jackson ImmunoResearch cat no. 109-035-098) was subsequently added for 1 hour and plates developed by addition of TMB. The reaction was stopped by addition of 0.5M sulphuric acid and plates read on BMG PheraStar at Absorbance 450 nm. […] Human CD8+ T cells pre-stimulated for 48 hours with PMA/ionomycin were washed with FACS buffer (PBS supplemented with 10% human serum and 0.05% sodium azide) by centrifugation. Serially diluted bispecific and trispecific Humabody VH construct were added to the cells for 1 hour on ice. Plates were washed with FACS buffer then detection mix containing 5 nM biotinylated-PSMA, 20 nM Streptavidin AlexaFluor488 and Live/Dead NearIR cell stain dilution added. Plates were incubated at 4° C. for 1 hour then washed twice with FACS buffer by centrifugation. Cells were fixed by addition 1× BD Cell fix solution, then washed twice with PBS by centrifugation and the cell pellets resuspended in PBS. Fluorescence was measured in the RL2-H channels (Live/Dead stain) and BL1-H channel (AlexaFluor488 stain) on the iQue Plus Screener (IntelliCyt). The bispecific and trispecific molecules were able to simultaneously bind human CD8+ T cells and PSMA protein.

[2] = biological target: T2, human CD137-human Fc chimeric protein (Acro Biosystems cat no. 41B-H5258) (human, UniProt Q07011 24-186); assay: dual binding cell based ELISA: serially diluted VH on plated CHO human PSMA cells, then 1 nM CD137huFc, detection with anti human Fc-HRP, absorbance 450 nm
T2 construct: Bought protein; also called CD137-Fc tag protein; CD137huFc; not shown: human IgG1 Fc
Protocol: Association 1—Binding of the trispecific molecule to CD137Fc captured on protein G biosensors. Association 2—binding of Human serum Albumin, Association 3—Binding of PSMA in the presence of Human serum albumin to minimise HSA dissociation. […] Dual target engagement of CD137 and PSMA by the bispecific molecules was assessed using an ELISA format and by flow cytometry with T cells. For ELISA, CHO-PSMA cells (20000/well) were seeded into 96 well plates (Greiner cat no. 353872) in Hams F12 supplemented with L-Glutamine+Blasticidin+Tetracycline and incubated at 37° C. with 5% CO₂ overnight. All subsequent steps were performed at room temperature and included washes with PBS between each step. Plates were blocked with PBS/0.1% BSA for 1 hour then serially diluted Humabody® VH were added and allowed to bind for 1 hour. Following removal of unbound VH, 1 nM CD137huFc (Acro Biosystems cat no. 41B-H5258) was added to the wells and incubated for 1 hour. A 1:3000 dilution of Anti-huFc-HRP (Jackson ImmunoResearch cat no. 109-035-098) was subsequently added for 1 hour and plates developed by addition of TMB. The reaction was stopped by addition of 0.5M sulphuric acid and plates read on BMG PheraStar at Absorbance 450 nm. […] Fluorescence was measured in the RL2-H channels (Live/Dead stain) and BL1-H channel (AlexaFluor488 stain) on the iQue Plus Screener (IntelliCyt). […]

[3] = biological target: T3, human CD137 expressed on cells (human, UniProt Q07011 24-255); assay: dual-binding flow cytometry: pre-stimulated human CD8+ T cells, bound construct detected with 5 nM biotinylated-PSMA and streptavidin-AlexaFluor488; average ± SD, at least 6 donors
T3 construct: Whole entry with its signal peptide; also called 4-1BB; TNFRS9
Protocol: as §1, with “Serially diluted bispecific and trispecific Humabody VH construct were added to the cells for 1 hour on ice. Plates were washed with FACS buffer then detection mix containing 5 nM biotinylated-PSMA, 20 nM Streptavidin AlexaFluor488 and Live/Dead NearIR cell stain dilution added. Plates were incubated at 4° C. for 1 hour then washed twice with FACS buffer by centrifugation. Cells were fixed by addition 1× BD Cell fix solution, then washed twice with PBS by centrifugation and the cell pellets resuspended in PBS.” left out, “The bispecific and trispecific molecules were able to simultaneously bind human CD8+ T cells and PSMA protein.” left out

T1 sequence (Q04609 whole entry): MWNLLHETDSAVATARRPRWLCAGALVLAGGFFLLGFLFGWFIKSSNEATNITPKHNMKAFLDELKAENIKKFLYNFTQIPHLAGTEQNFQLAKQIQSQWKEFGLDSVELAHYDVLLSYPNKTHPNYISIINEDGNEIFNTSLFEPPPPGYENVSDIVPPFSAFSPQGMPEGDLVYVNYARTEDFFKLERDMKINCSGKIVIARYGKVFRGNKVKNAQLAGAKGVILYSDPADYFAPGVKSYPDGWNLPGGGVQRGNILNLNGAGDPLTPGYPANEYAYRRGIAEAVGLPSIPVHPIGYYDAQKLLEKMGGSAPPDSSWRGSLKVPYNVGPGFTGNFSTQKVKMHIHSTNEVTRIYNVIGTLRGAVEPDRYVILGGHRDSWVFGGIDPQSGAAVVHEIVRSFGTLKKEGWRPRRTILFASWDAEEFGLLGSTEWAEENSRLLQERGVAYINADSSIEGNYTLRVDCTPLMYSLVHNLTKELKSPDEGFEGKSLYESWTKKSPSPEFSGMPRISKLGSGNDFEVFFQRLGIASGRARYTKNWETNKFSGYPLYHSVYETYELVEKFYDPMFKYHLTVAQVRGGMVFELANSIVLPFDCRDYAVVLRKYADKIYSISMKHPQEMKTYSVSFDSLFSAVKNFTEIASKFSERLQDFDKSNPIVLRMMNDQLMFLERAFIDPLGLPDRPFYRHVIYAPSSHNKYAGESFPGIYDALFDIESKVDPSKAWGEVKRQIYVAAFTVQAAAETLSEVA

EC50 [1]: 1.6 nM
B1: 3.8-6GS-1.113-6GS-VH HSA 4GS (bispecific antibody)
chain: EVQLLESGGGLVQPGGSLRLSCAASGFSFSSYALSWVRQAPGKGLEWVSSIGENDGTTDYAD[not shown - about 20 residues]MNSLRVEDTAVYYCVKDGVHWGQGTLVTVSSGGGGSGGGGSGGGGSGGGGSGGGGSGGGGSEVQLVESGGGLVQPGGSLRLSCAASGFTLSNYWMNWVRQAPGKGLEWVANINQDGSERYYVDSVKGRFTISRDNAKNSLYLQMNSLRAEDTAVYYCARGGEGYGVDHYGLDVSGQGTTVTVSSGGGGSGGGGSGGGGSGGGGSGGGGSGGGGSEVQLVESGGGLVQPGRSLRLSCAASGFTFHHYAMHWVRQAPGKGLEWVSGISWNGNKITYADSVKGRFTISRDNAKNSLYLQMNSLRAEDTALYYCVRDSSLFIVGAPTFEHWGRGTLVTVSSGGGGSGGGGSGGGGSGGGGS
notes: Trispecific single-chain fusion of three VH domains (PSMA, CD137, human serum albumin)

EC50 [1]: 2.5 nM
B2: 3.8-6GS-VH HSA-6GS-1.113-4GS (bispecific antibody)
chain: EVQLLESGGGLVQPGGSLRLSCAASGFSFSSYALSWVRQAPGKGLEWVSSIGENDGTTDYAD[not shown - about 20 residues]MNSLRVEDTAVYYCVKDGVHWGQGTLVTVSSGGGGSGGGGSGGGGSGGGGSGGGGSGGGGSEVQLVESGGGLVQPGRSLRLSCAASGFTFHHYAMHWVRQAPGKGLEWVSGISWNGNKITYADSVKGRFTISRDNAKNSLYLQMNSLRAEDTALYYCVRDSSLFIVGAPTFEHWGRGTLVTVSSGGGGSGGGGSGGGGSGGGGSGGGGSGGGGSEVQLVESGGGLVQPGGSLRLSCAASGFTLSNYWMNWVRQAPGKGLEWVANINQDGSERYYVDSVKGRFTISRDNAKNSLYLQMNSLRAEDTAVYYCARGGEGYGVDHYGLDVSGQGTTVTVSSGGGGSGGGGSGGGGSGGGGS
notes: Trispecific single-chain fusion of three VH domains (PSMA, human serum albumin, CD137)

binding result [2]: no binding (tested: 1e-7 M (log10 -7))
B3: Humabody VH 3.8 (VHH)
VHH: EVQLLESGGGLVQPGGSLRLSCAASGFSFSSYALSWVRQAPGKGLEWVSSIGENDGTTDYAD[not shown - about 20 residues]MNSLRVEDTAVYYCVKDGVHWGQGTLVTVSS

EC50 [3]: 0.87 nM
EC50 [1]: 1.3 nM
B4: 3.8-6GS-1.113 (bispecific antibody)
chain: EVQLLESGGGLVQPGGSLRLSCAASGFSFSSYALSWVRQAPGKGLEWVSSIGENDGTTDYAD[not shown - about 20 residues]MNSLRVEDTAVYYCVKDGVHWGQGTLVTVSSGGGGSGGGGSGGGGSGGGGSGGGGSGGGGSEVQLVESGGGLVQPGGSLRLSCAASGFTLSNYWMNWVRQAPGKGLEWVANINQDGSERYYVDSVKGRFTISRDNAKNSLYLQMNSLRAEDTAVYYCARGGEGYGVDHYGLDVSGQGTTVTVSS
notes: the tested construct may be that one
